Laboratory results: PubChem BioAssay AID2675 (National Center for Advancing Translational Sciences (NCATS), 2010)
About 100 (0.036%) of roughly 280,000 compounds were called active. Inconclusive means that the source gave no clear call. Such entries were picked first, then a sample of the others. Calls come from the whole dose curve; as a rule, active = well fitted inhibition curve with a large enough effect in the signal ratio, with a control signal flat (not every such curve was filed as active); inconclusive = small, poorly fitted or top-dose-only effect, or effect the other way, or a change in a side signal; inactive = no such curve, though single readings can be large or run the other way; the % refers to the signal ratio. Potencies beside an inconclusive call are fits to weak or partial responses and may not hold up. “Side channel” marks fits to a control or component signal instead of the main read-out.

These compounds were tested against Muscleblind-like protein 1 (Homo sapiens) (UniProt Q9NR56) (assay: qHTS Assay for Inhibitors of MBNL1-poly(CUG) RNA binding). Conditions: TR-FRET MBNL1-His/biotin-(CUG)12 binding, 665/545 ratio; activity change, negative = inhibition: at 57.5 µM (top of the series).
How it was run: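 TR-FRET between His-tagged MBNL1 and biotin-(CUG)12 RNA, detected with Tb anti-His antibody (0.055 ng/ul) and streptavidin-XL665 (5 nM), 60 min at room temperature. Compounds titrated 92 nM to 58 uM; 665/545 nm ratio normalized to buffer and complex controls.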
% is set by controls: 0 for no effect and ±100 for the full control effect; potency is the fitted concentration of half-maximal effect; tags give direction and shape of the fitted curve or compound fluorescence and quenching.

Chain of UniProt Q9NR56 (Q9NR56 whole entry, looked up): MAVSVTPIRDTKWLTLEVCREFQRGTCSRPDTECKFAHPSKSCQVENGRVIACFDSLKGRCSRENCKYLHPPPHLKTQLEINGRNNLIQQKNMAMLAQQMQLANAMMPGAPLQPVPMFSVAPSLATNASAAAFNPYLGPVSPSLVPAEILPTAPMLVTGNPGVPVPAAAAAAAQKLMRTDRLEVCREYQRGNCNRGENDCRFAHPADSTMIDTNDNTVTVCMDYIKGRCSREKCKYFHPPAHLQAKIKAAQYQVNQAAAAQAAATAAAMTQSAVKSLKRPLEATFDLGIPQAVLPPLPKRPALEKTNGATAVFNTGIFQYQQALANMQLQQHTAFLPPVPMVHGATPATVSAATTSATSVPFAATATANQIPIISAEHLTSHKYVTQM

| Structure (SMILES) | activity change, negative = inhibition | Potency |
| --- | --- | --- |
| COc1ccc(C(C)(C)C)cc1NC(=S)NCCN1CCOCC1 | inactive: -16.5% |  |
| CC1=C(C)CC2C(=O)N(c3cccc4ccccc34)C(=O)C2C1 (centres undefined) |  | inconclusive: 31.6 µM [quencher, side channel, single point] |
| O=C(N/N=C/c1cccnc1)c1sc2ccccc2c1Cl |  | inconclusive: 35.5 µM [quencher, side channel, single point] |
| O=C1c2ccccc2C(=O)C2OC12 (centres undefined) |  | inconclusive: 28.2 µM [quencher, side channel, partial curve] |
| O=Nc1c(-c2cccc([N+](=O)[O-])c2)nc2ncccn12 |  | inconclusive: 10 µM [quencher, partial curve, poor fit] |
| O=C(Nc1ccc([N+](=O)[O-])cc1)Nc1ccon1 |  | inconclusive: 15.8 µM [quencher, side channel, partial curve] |
| COC(=O)Nc1c(C)n(C)n(-c2ccccc2)c1=O |  | inconclusive: 3.16 µM [quencher, side channel, single point] |
| O=[N+]([O-])c1cccc2ccc(N3CCOCC3)nc12 |  | inconclusive: 28.2 µM [quencher, side channel, single point] |
| O=C(COC(=O)c1ccc[nH]c1=O)c1ccc(Cl)s1 |  | inconclusive: 15.8 µM [quencher, side channel, partial curve] |
| CN1CCN(C(=O)C2(NC(=O)NCc3ccccc3)CCCCC2)CC1 |  | inconclusive: 79.4 µM [inhibitor, single point] |
| O=C(Nc1cccc([N+](=O)[O-])c1)Nn1cnnc1 |  | inconclusive: 25.1 µM [quencher, side channel, partial curve] |
| N#C/C(=C/c1ccc(N2CCOCC2)c([N+](=O)[O-])c1)C(N)=O |  | inconclusive: 25.1 µM [quencher, side channel, partial curve] |
| O=C(O)C1CCN(c2ccc(S(=O)(=O)N3CCOCC3)cc2[N+](=O)[O-])CC1 |  | inconclusive: 15.8 µM [quencher, side channel, partial curve] |
| CCN(C(=O)CSc1nnc(CNc2cccc(OC)c2)n1C1CCCCC1)C1CCS(=O)(=O)C1 (centres undefined) | inactive: -16.9% |  |
| COC(=O)c1ccc(SCc2cnc(Cl)s2)cc1 |  | inconclusive: 100 µM [inhibitor, partial curve] |
| CS(=O)(=O)Nc1ccc(-c2cn3cccnc3n2)cc1 |  | inconclusive: 25.1 µM [quencher, side channel, partial curve] |
| O=C(Nc1cccc(-c2cc3ccccc3oc2=O)c1)c1ccc(Br)o1 |  | inconclusive: 22.4 µM [quencher, side channel, single point] |
| N=c1c2c(ncn1CCN1CCOCC1)Oc1ccc3ccccc3c1C2c1ccccc1 (centres undefined) | inactive: 3.08% |  |
| CCn1c2ccccc2c2nnc(SCCN3CCCCC3)nc21 |  | inconclusive: 15.8 µM [quencher, side channel, partial curve] |
| COc1ccc(-n2c(COc3ccc(Cl)cc3)nnc2SCc2ccc(C#N)cc2)cc1 | inactive: -9.95% |  |
| COc1ccc(/C=N/Nc2nncn2N)cc1Br |  | inconclusive: 20 µM [quencher, side channel, partial curve] |
| CN1CCN(c2oc(/C=C/c3ccccc3)nc2C#N)CC1 |  | inconclusive: 17.8 µM [quencher, side channel, partial curve] |

| Structure (SMILES) | activity change, negative = inhibition | Potency |
| --- | --- | --- |
| O=Cc1ccc(-c2ccc(C(=O)O)cc2)o1 |  | inconclusive: 7.94 µM [quencher, side channel, partial curve] |
| COC(=O)COc1cccc(NC(=O)c2ccc(Cl)cc2)c1 | inactive: -2.96% |  |
| c1ccc(CNc2nc(-c3cccs3)nc3ccccc23)nc1 |  | inconclusive: 35.5 µM [quencher, side channel, single point] |
| COc1ccc(-c2noc(CN(C)CCC3CCCCO3)n2)cc1 (centres undefined) | inactive: -4.97% |  |
| CC(C)c1ccc(/C=C/C(=O)NC2=NCCS2)cc1 | inactive: 17.6% |  |
| O=C(Nc1ccc(N2CCOCC2)cc1)c1cccc(S(=O)(=O)N2CCCCC2)c1 |  | inconclusive: 39.8 µM [fluorescent, side channel, single point] |
| CC(=O)Nc1ccc(/C=N/Nc2nc3ccccc3[nH]2)cc1 |  | inconclusive: 12.6 µM [quencher, side channel, single point] |
| O=[N+]([O-])c1cc(O)c2ncccc2c1 |  | inconclusive: 22.4 µM [quencher, side channel, partial curve] |
| O=S(=O)(NCc1ccccc1)c1ccc(NC(=S)NCc2ccco2)cc1 | inactive: -1.17% |  |
| Cc1ccc(C2C(C#N)=C(N)Oc3cc(N)ccc32)cc1 (centres undefined) | inactive: 13.8% |  |
| COc1ccccc1/C=C1\SC(=S)N(N2C(=O)CCCC2=O)C1=O |  | inconclusive: 31.6 µM [quencher, side channel, single point] |
| C[n+]1cccc(/C=N/NC(=O)CC23CC4CC(CC(C4)C2)C3)c1 |  | inconclusive: 25.1 µM [quencher, side channel, single point] |
| Cc1ccc(C)c(-n2cc(CNCCc3cnccn3)c(-c3ccccc3)n2)c1 | inactive: -1.51% |  |
| Cc1nc(-c2ccccc2)sc1C(=O)CSc1ccc(F)cc1 |  | inconclusive: 31.6 µM [quencher, side channel, partial curve] |
| CCOC(=O)c1c(C)[nH]c(C(=O)N/N=C/c2cc([N+](=O)[O-])ccc2O)c1C | inactive: 6.21% |  |
| CCOc1ccc(C2NC(=O)C(C#N)=C(S)N2c2ccc(C)cc2)cc1OC (centres undefined) | inactive: 1.31% |  |
| O=C(Nc1ccccc1)c1cc([N+](=O)[O-])ccc1NCc1cccnc1 |  | inconclusive: 12.6 µM [quencher, side channel, partial curve] |
| COC(=O)C(C(=O)OC)c1ncccc1[N+](=O)[O-] |  | inconclusive: 20 µM [quencher, side channel, single point] |
| Cc1cc(C)n(Cc2ccc(Cl)cc2Cl)c(=O)c1S(=O)(=O)c1ccccc1 | inactive: -4.16% |  |
| COc1cc2c(cc1NC(=O)/C=C/c1cc(OC)c(OC)c(OC)c1)oc1ccccc12 | inactive: 9.47% |  |
| CCCC[C@]12Cc3ccccc3C(O1)c1c(cc(-c3ccccc3)oc1=O)O2 |  | inconclusive: 3.16 µM [quencher, side channel, partial curve] |
| O=C(Cc1cccs1)N1CCN(S(=O)(=O)c2ccccc2)CC1 |  | inconclusive: 1 µM [fluorescent, side channel, partial curve] |

| Structure (SMILES) | activity change, negative = inhibition | Potency |
| --- | --- | --- |
| COc1ccc(-c2cn3c(C)c(C(=O)N4CCN(c5ccccc5F)CC4)sc3n2)cc1 | inactive: -13.4% |  |
| CC(=O)OCC(=O)N1CCN(c2ccc([N+](=O)[O-])cc2)CC1 |  | inconclusive: 3.16 µM [quencher, side channel, partial curve] |
| COc1ccc2cc3cc(C(=O)N4CCCC(C)C4)oc3nc2c1 (centres undefined) |  | inconclusive: 1.78 µM [quencher, side channel, full curve] |
| C/C(=N\NC1=NCCN1)c1ccc(N)c([N+](=O)[O-])c1 |  | inconclusive: 17.8 µM [quencher, side channel, partial curve] |
| O=C(CCC(=O)NNC(=O)c1ccc([N+](=O)[O-])cc1)NCc1ccccc1 |  | inconclusive: 28.2 µM [quencher, partial curve] |
| COc1ccc(-c2cc(C(F)F)n3ncc(C(=O)NCCCN4CCCC4=O)c3n2)cc1 |  | inconclusive: 0.794 µM [quencher, side channel, full curve, poor fit] |
| CC(/C=C/c1ccccc1)=N/NC(=O)Cn1nnc(N)n1 |  | inconclusive: 11.2 µM [quencher, side channel, partial curve] |
| NS(=O)(=O)c1ccc(N/C=C\C(=O)c2ccc(F)cc2)cc1 |  | inconclusive: 8.91 µM [quencher, side channel, partial curve] |
| Cc1ccccc1-n1nc2c(c1NC(=O)c1cc3ccccc3oc1=O)CS(=O)C2 (centres undefined) |  | inconclusive: 2.24 µM [quencher, side channel, partial curve, poor fit] |
| Cc1ccc(N(C(=O)CNC(=O)c2ccco2)C(C(=O)NC2CCCC2)c2cccnc2)cc1C (centres undefined) | inactive: 2.66% |  |
| Cc1ccc(NC(=O)c2cc3ccccc3oc2=N)cc1 | inactive: 8.15% |  |
| Cn1cccc1CC(=O)N/N=C/c1ccc(Cl)c([N+](=O)[O-])c1 |  | inconclusive: 12.6 µM [quencher, side channel, partial curve] |
| Cc1ccsc1/C=N/NC(=S)NCCc1ccccc1 | inactive: -10.1% |  |
| Cc1ccc(S(=O)(=O)N(C)C)cc1NC(=O)COC(=O)/C=C/c1ccc2c(c1)OCO2 |  | inconclusive: 14.1 µM [quencher, side channel, partial curve] |
| COc1ccccc1-c1ccc(/C=C2\C=CC(=O)O2)o1 |  | inconclusive: 15.8 µM [quencher, side channel, partial curve] |
| Cc1sc2ncnc(NCC3(N4CCOCC4)CCCCC3)c2c1C | inactive: -21.8% |  |
| Cc1cccc(NC(=O)CSc2nc(N)c(NC(=O)c3cccs3)c(=O)[nH]2)c1C | inactive: 0.0684% |  |
| Cc1ccc(C)c(S(=O)(=O)N=Nc2c(O)[nH]c3ccccc23)c1 |  | inconclusive: 22.4 µM [quencher, single point] |
| COc1ccc2c(c1OC)C(=O)N(c1cccc(/C=C/C(=O)O)c1)C2 |  | inconclusive: 28.2 µM [quencher, side channel, partial curve] |
| Cc1cccc(-n2c(O)c(/C=N/NC(=O)c3ccccc3Cl)c3ccccc3c2=O)n1 |  | inconclusive: 39.8 µM [activator, single point] |
